Among the data in PubChem BioAssay AID488969 (Vanderbilt High Throughput Screening Facility, 2010) are z-score values, retold here.

Whole data set: some 110,000 compounds, median “z-score” near -0.1, cut for the highest 2% near 2. Some of the results follow. Calls of active or inactive are those of the source.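 How the source made its calls: active means z-score in the third read window above 3 or below -3; inactive means the rest.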

For this experiment, the target named is Metabotropic glutamate receptor 8 (Rattus norvegicus) (UniProt P70579). Put plainly: rat mGluR8 modulators via GIRK flux, primary screen, cell-based, thallium flux, HTS (AID 488969). The settings on record: HEK293 rat mGluR8, GIRK (G protein-gated inwardly rectifying potassium channel) thallium flux, FluoZin2; at 10 µM; stronger effect = higher value; submaximal glutamate (EC20) added with thallium.
UniProt P70579, sequence (P70579 whole entry, looked up): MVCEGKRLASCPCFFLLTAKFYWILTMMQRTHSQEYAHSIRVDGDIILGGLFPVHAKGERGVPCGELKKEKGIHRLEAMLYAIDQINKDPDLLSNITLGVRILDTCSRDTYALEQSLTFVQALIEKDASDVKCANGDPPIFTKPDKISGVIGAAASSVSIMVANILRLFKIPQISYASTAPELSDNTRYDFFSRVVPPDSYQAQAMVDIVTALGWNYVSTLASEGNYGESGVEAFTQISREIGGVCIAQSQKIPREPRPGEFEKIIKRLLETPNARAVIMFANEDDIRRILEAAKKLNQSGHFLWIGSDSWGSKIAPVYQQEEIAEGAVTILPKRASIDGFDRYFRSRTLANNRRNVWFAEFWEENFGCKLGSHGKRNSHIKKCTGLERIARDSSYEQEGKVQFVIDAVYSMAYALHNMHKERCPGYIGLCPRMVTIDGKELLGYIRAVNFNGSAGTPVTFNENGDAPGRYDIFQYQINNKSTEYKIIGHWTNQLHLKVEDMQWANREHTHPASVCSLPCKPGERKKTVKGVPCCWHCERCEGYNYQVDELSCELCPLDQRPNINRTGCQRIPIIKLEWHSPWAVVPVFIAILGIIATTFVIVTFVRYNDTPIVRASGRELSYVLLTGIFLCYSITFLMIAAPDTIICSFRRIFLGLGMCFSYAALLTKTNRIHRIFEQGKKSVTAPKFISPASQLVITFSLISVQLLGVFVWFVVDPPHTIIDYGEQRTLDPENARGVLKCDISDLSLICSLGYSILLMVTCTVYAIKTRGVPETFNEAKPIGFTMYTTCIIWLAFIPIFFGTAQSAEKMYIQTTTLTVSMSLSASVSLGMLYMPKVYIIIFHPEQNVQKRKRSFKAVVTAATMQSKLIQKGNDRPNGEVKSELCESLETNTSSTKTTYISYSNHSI
Consider `CN(C1CCS(=O)(=O)C1)S(=O)(=O)c1cccc2nsnc12` (stereo unspecified), for which the z-score was -0.32. In the case of `CCOP(=O)(OCC)C(NCc1ccccc1)c1ccc(Br)cc1` (stereo unspecified) it was -0.107; in that of `CN(C)CCNC=C(C(=O)Nc1ccc(Cl)cc1Cl)C(=O)Nc1ccc(Cl)cc1Cl`, -0.172.

`CN(C)c1ccc(C=C(c2nnnn2-c2ccccc2)c2nnnn2-c2ccccc2)cc1` displayed a z-score of -0.722. The same measure for `CCOC(=O)c1cc2c(ccn2C)n1Cc1cc(C)ccc1C`: 0.246; for `CNc1oc(Cc2cccc3ccccc23)nc1C#N`: -0.318; for `Cc1cccc(Oc2ccccc2NC(=O)c2cnccn2)c1`: -0.109.

As to `COc1ccc2nc(NC3=NC(C(=O)Nc4ccc(C)cc4)CC(=O)N3)nc(C)c2c1` (stereo unspecified), the z-score was -0.114. The same measure for `Cc1nnc(SCC(=O)Nc2sccc2C#N)n1Cc1ccccc1`: 1.4; for `CCn1cc(C(=O)O)c(=O)c2cc(F)c(N3CCN(S(=O)(=O)c4ccc(NC(=O)OC)cc4)CC3)cc21`: -0.347; for `O=C(NCCN1C(=O)CSC1=O)C1CC(=O)N(c2ccccc2)C1` (stereo unspecified): -0.251. In the case of `CCSc1nnc(NC(=O)[C@@H](NC(=O)c2ccccc2)C(C)C)s1` it was -0.168. The same measure for `CC(=O)Nc1ccc(S(=O)(=O)NCCSc2ccccn2)cc1`: 0.153; for `Cc1cc(S(=O)(=O)NCc2ccccc2)ccc1OCC(=O)Nc1cccc([N+](=O)[O-])c1`: -0.12. Regarding `O=C(c1coc2ccccc2c1=O)N1CCN(c2cccc(C(F)(F)F)c2)CC1`, the z-score is -0.686. The same measure for `CC(=O)[C@@H]1[C@@H]2C(=O)N(Cc3ccccc3)C(=O)[C@@H]2C2c3ccccc3C=CN21` (stereo partly specified): -0.583.

Molecule `CCOc1ccc(C(CCc2ccccc2)NC(=O)c2ccccc2F)cc1OCC` (stereo unspecified) showed a z-score of -0.49. The same measure for `Cc1cc(CSc2ccccc2)ccc1NC(=O)c1ccc(Cl)c([N+](=O)[O-])c1`: -0.354. With `CC(=O)n1nc2nc(C)cc(C)c2c1N`, the z-score was 0.0296. In the case of `N#Cc1c(N)nc(SCC(=O)NC2CCCCC2)c(C#N)c1-c1ccc(Cl)cc1` it was 0.526; in that of `CC1CC(C)CN(CCOc2ccc(Cl)cc2Cl)C1` (stereo unspecified), -0.4; in that of `Cc1ccc(Nc2nc(-c3sc(NC(=O)c4cccc(Cl)c4)nc3C)cs2)cc1`, 0.086. The same measure for `O=C(CS(=O)(=O)c1ccccc1)c1ccc2c(c1)OCCO2`: -1.45; for `Cc1cc2ncn(CC(O)COc3cccc(C(=O)O)c3)c2cc1C` (stereo unspecified): -0.664.

Molecule `CCCCCCCCS(=O)c1sc2nc(C)cc(C)c2c1N` (stereo unspecified) came in with a z-score of 0.417. Molecule `CCOC(=O)c1c(N)sc(C(=O)N(C)C)c1CN1CCOCC1` had a z-score of -0.409. `N#Cc1c(-c2ccc(Cl)cc2)ccn2nc(C3CCCCC3)nc12` registered a z-score of -0.0469.

The molecule `c1cncc(-c2nnc(SCc3cccc4ccccc34)o2)c1` showed a z-score of -0.08. `COc1cccc(-c2nnc3n2N=C(c2cc(OC)ccc2OC)CS3)c1` had a z-score of -0.616. In the case of `CC1=NCCN1S(=O)(=O)c1ccc(Br)c(C)c1` it was 0.159; in that of `COc1ccc(C2C(C(=O)N3CCCCC3)c3ccccc3C(=O)N2C)cc1` (stereo unspecified), -0.315. In the case of `CC(c1ccc(F)cc1)n1c(-c2ccc3ccccc3n2)n[nH]c1=S` (stereo unspecified) it was active: 6.84. The molecule `O=C1CCCCCCC1Sc1ccccc1[N+](=O)[O-]` (stereo unspecified) yielded a z-score of -0.12. The same measure for `O=C(C1=C(Nc2ccccc2)c2ccccc2S(=O)(=O)N1)c1ccccc1`: -0.115; for `CCN(CC)Cc1c(O)ccc2c(=O)c(Oc3ccccc3OC)coc12`: -0.345. The same measure for `Cc1ccc(-n2nnnc2Sc2nc([N+](=O)[O-])nn2C)c(C)c1`: -0.203.

On to `CCOC(=O)c1ccc(-n2c(N)c(C(=O)NCc3ccco3)sc2=S)cc1`, for which the z-score is -1.24. In the case of `CC(/C=N/NC(=O)C(O)c1ccccc1)=C\c1ccccc1` (stereo unspecified) it was -0.196.

For `Cc1cccc(C)c1OCC(O)CNC(C)C` (stereo unspecified), the z-score was -0.0305. In turn, `Cc1ccccc1S(=O)(=O)NNC(=O)C(=O)NNc1ccccn1` had a z-score of 0.00757. In the case of `CN1CCN(CCCc2c3c(cc4c2CCC4)CCC3)CC1` it was 0.356; in that of `CCCCSCCCNC(=O)Nc1cccc(OC)c1`, -0.211; in that of `CCCCN(C)S(=O)(=O)c1c(C)[nH]c(=O)[nH]c1=O`, -0.321.

In turn, `COc1ccc2oc(=O)c(-c3nc4ccccc4o3)cc2c1` came in with a z-score of -0.0792. The same measure for `O=C(N/N=C/c1cccc([N+](=O)[O-])c1)c1ccc2nc[nH]c2c1`: -0.363. In the case of `CN1CCN(C(=O)c2cc3c(ccc4ccccc43)oc2=O)CC1` it was -0.235; in that of `Cc1ccc(CSc2ncccc2C(=O)O)cc1`, -0.255; in that of `CCCc1nc2sc3c(c2c(=O)n1N)CCC3`, -0.358.

`O=C(/C=C/c1ccc(-c2ccccc2[N+](=O)[O-])o1)c1ccc(F)cc1` returned a z-score of 0.317. The same measure for `O=C(CCn1c(=O)[nH]c2ccsc2c1=O)N1CCN(Cc2ccc3c(c2)OCO3)CC1`: -0.248. The molecule `CCCCOc1cccc(-c2nnc(N)s2)c1` showed a z-score of -0.361.

In turn, `CCC(C)NC(=O)Nc1ccccc1C` (stereo unspecified) returned a z-score of 0.0118. The same measure for `O=C(NC(=S)NC1CCSC1=O)c1cccs1` (stereo unspecified): 0.494; for `Cc1sc2nc(CSCC(=O)Nc3c(Cl)cccc3Cl)[nH]c(=O)c2c1C`: -0.156; for `O=C(COC(=O)C1(c2ccc(F)cc2)CCCC1)N1CCOCC1`: -0.0802. With `CC(=O)c1cccc(NC(=O)c2ccc(-c3ccccc3[N+](=O)[O-])o2)c1`, the z-score is -0.15. The same measure for `CCCCN(C(=O)CSc1nnc(-c2ccc(OC)cc2)n1CC)c1c(N)n(Cc2ccccc2)c(=O)[nH]c1=O`: 0.217; for `O=C1CCCN1CN(C(=O)c1ccc2c(c1)OCO2)c1ccc(F)cc1`: -0.0977.

Consider `Cn1cc(SCC(=O)Nc2nc3ccccc3s2)c2ccccc21`, for which the z-score is 0.0839. The same measure for `O=C(COC(=O)c1ccc(S(=O)(=O)N2CCCC2)cc1)NCc1ccc(Cl)cc1`: -0.409. The same measure for `Cc1ccccc1-c1nc(CS(=O)(=O)CC(=O)NCCCN2CCCC2)c(C)o1`: 1.69; for `CSc1nc2ccccc2n1CC(=O)N1CCCCC1`: 0.207; for `COCCn1c(=NC(=O)c2cc(-c3cccs3)nc3ccccc23)sc2cc(S(N)(=O)=O)ccc21`: -0.122.

`CN(C)CCCN1C(=O)c2oc3ccccc3c(=O)c2C1c1cccs1` (stereo unspecified) had a z-score of 2.78. For the molecule `CCOc1ccc(-c2ccc(/C=C3/C(=N)N4C=CSC4=NC3=O)o2)c([N+](=O)[O-])c1`, the z-score was determined as 0.233. The same measure for `O=C(O)CCN1C(=O)/C(=C\c2ccc(-c3nc4ccccc4s3)o2)SC1=S`: 2.49; for `CN=C(Nc1ccc(Cl)cc1)c1cccc(C(F)(F)F)c1`: 0.181. Molecule `O=C(c1cnn2c(C(F)F)cc(-c3ccccc3)nc12)N1CCN2CCCC2C1` (stereo unspecified) had a z-score of -0.85. Molecule `O=C(CSc1nccn1Cc1ccccc1)Nc1nccs1` displayed a z-score of -0.379. In the case of `CC(C)Cc1c(O)nc(SCC(=O)Nc2ccc3c(c2)CCC3)[nH]c1=O` it was -1.43. The molecule `COC(=O)c1ccc(NC(=O)CN2CCN(c3ccccc3)CC2)cc1` displayed a z-score of -0.224. The same measure for `COc1cc(-n2c(C)nc3cc(C(=O)NCCN4CCOCC4)ccc32)cc(OC)c1OC`: -0.57; for `COc1ccc(C)cc1NC(=O)CN1C(=O)c2ccccc2S1(=O)=O`: 0.152.

Molecule `CSc1nnc(Nc2ccccc2C)s1` came in with a z-score of -0.0316. The same measure for `C=CCNc1oc(-c2cccs2)nc1C#N`: -0.121.

Turning to `O=C(O)C1CSC(c2ccncc2)N1` (stereo unspecified), the z-score is -0.0727. In the case of `Cc1cc(Cl)cc(Cl)c1OCCCCN(C)C` it was -0.393; in that of `COc1ccc(-c2n[nH]c(C)c2-c2ccc(Cl)cc2)c(O)c1OC`, -0.612. Molecule `COC(=O)c1cc(C)nc(N)c1C#N` displayed a z-score of -0.219. In the case of `COc1ccc(C2(CCN)CC(C)N(C)CC2C)cc1` (stereo unspecified) it was -0.133; in that of `O=C(O)c1coc2ccccc12`, -1.06; in that of `COc1ccc(/C=N/NC(=O)CCCC(=O)NC2CCCCC2)cc1`, -0.054. In the case of `COc1ccc(Cn2c(N)c(S(=O)(=O)c3cccs3)c3nc4ccccc4nc32)cc1` it was -0.287. Molecule `C/C(=N/NC(=O)CNc1ccc(C)cc1)c1ccc(Cl)cc1` showed a z-score of -0.266.

`CCCCn1c(=O)[nH]c(=O)c2c1nc(-c1ccncc1)n2CCOC` returned a z-score of -0.277. The same measure for `COc1ccc(N(CC(=O)N2CCCCC2)S(=O)(=O)c2ccccc2)c(OC)c1`: -0.156; for `O=c1cnnc(NCc2ccccc2)[nH]1`: 0.139. Consider `CC(SCc1ccccc1)C(=O)Nc1ccccc1-c1ccccc1` (stereo unspecified), for which the z-score was -0.65. In the case of `Cc1onc(-c2ccccc2Cl)c1C(=O)NCCN1CCOCC1`, the z-score is 0.0859. The same measure for `CC(C)CC(NC(=O)CCl)c1ccccc1` (stereo unspecified): -0.113. In the case of `O=C(NCc1ccco1)c1ccc(CS(=O)(=O)c2cccc(C(F)(F)F)c2)o1` it was 0.295; in that of `COCCNC(=O)CSc1nc2cc3c(cc2c(=O)n1Cc1ccco1)OCO3`, 0.316. In the case of `CCS(=O)(=O)c1ccc2oc(SCC(=O)NC34CC5CC(CC(C5)C3)C4)nc2c1` it was 0.00733. `CCOc1cc(/C=C2/NC(=S)NC2=O)ccc1OCc1ccc([N+](=O)[O-])cc1`: the z-score is -0.0197.

With `O=C(CN(Cc1ccccc1)S(=O)(=O)c1ccc(S(=O)(=O)N2CCOCC2)cc1)Nc1ccccc1`, the z-score is -0.068. The molecule `CC(=O)Nc1ccc(S(=O)(=O)N2CCN(Cc3cccnc3)CC2)cc1` showed a z-score of 0.0269. The same measure for `Cc1ccc(Cc2c(C)nc3c(C(=O)O)cnn3c2C)cc1`: 0.0858; for `C=CCOC(=O)C1=C(C)NC(C)=C(C(=O)OCC=C)C1/C=C/c1ccccc1`: -0.324; for `CCOC(=O)c1cccc2c(=O)c(C(=O)c3ccc(Cl)cc3)c(C(=O)OC)[nH]c12`: -0.264.

Turning to `Cc1cccc(CN(CC(=O)N/N=C/c2cccs2)S(=O)(=O)c2ccc(Cl)cc2)c1`, the z-score is 0.833. Regarding `Cc1cccc2c(=O)cc(C)n(CC(=O)N3CCCCC3)c12`, the z-score is active: 3.39. In the case of `Cc1ccc(/C(C#N)=C\c2ccc(N3CCOCC3)o2)cc1` it was -0.0585. Turning to `Cn1c(COc2ccccc2)nnc1SCC(=O)Nc1ccc(S(N)(=O)=O)cc1`, the z-score is -0.284. The molecule `O=C1C2CC=C(Cl)CC2C(=O)N1c1ncn[nH]1` (stereo unspecified) gave a z-score of -0.208.

The molecule `O=S(=O)(Nc1ccc(N2CCOCC2)cc1)c1cccs1` came in with a z-score of -0.527. `Cc1ccccc1C(=O)c1cccn1CC(=O)NCCN1CCN(c2cccc(C)c2C)CC1` yielded a z-score of 1.1. On to `CCCCSc1nnc(-c2ccc(C)cc2)o1`, for which the z-score is 0.892. For the molecule `Cc1c(C(=O)N2CCN(c3ccc(F)cc3)CC2)sc2nc(-c3ccccc3)cn12`, the z-score is -0.0686.

Molecule `O=C(NCCN1CCOCC1)c1cccc(Cl)c1` showed a z-score of -0.187. The molecule `CCN(CCC(=O)Nc1ccc(Br)c(C)c1)Cc1ccccc1` gave a z-score of 0.441. `CCCCCCC(=O)N1CCC(c2nc3c(nnn3Cc3ccccc3Cl)c(=O)[nH]2)CC1` yielded a z-score of -0.0143.
